# Assay results from PubChem BioAssay AID504832 (National Center for Advancing Translational Sciences (NCATS), 2011).
# Several values for one entry are separate records, joined by “and”; a condition that tells them apart may be missing. Equal entries are not always repeated. Out of some 310,000 compounds screened, about 18,000 (5.8%) were called active. The shares of active, inactive and inconclusive entries below differ from those in the screen. The call rests on the fitted dose curve; in most records, active means well fitted inhibition curve with a large enough effect; inconclusive means small, poorly fitted or top-dose-only effect, or another doubt; inactive means no such curve, though single readings can be large or run the other way. Potencies of inconclusive entries are doubtful fits and often do not repeat. Some compounds were tested as several samples or in several runs, with calls that do not always agree.
# Assay: Primary qHTS for delayed death inhibitors of the malarial parasite plastid, 48 hour incubation
# Details: P. falciparum luciferase growth in erythrocytes; series mostly up to 28.7 µM
# Excerpt: The goal of this screen is to discover new antimalarial compounds that act by inhibiting the development of the apicoplast in the malarial parasite Plasmodium falciparum. The biochemical processes that make this organelle essential for erythrocytic stage parasites are not well understood. However, antibiotics such as azithromycin and tetracycline, which target the apicoplast translational machinery, have a potent antimalarial effect.
# We have developed a cell-based assay that measures parasite growth based on the expression of an integrated copy of a firefly luciferase reporter. To detect small molecules that cause this "delayed death" phenotype, erythrocytes infected with the luciferase-expressing parasites were incubated with compounds for either one or two generations, corresponding to 48 and 96 hours, respectively. Compounds that inhibit parasite growth in the second generation, but not the first, should be enriched in antimalarials that target the apicoplast. Growth inhibition is detected by a decrease in luciferase activity.
# Assay Provider: David Fidock and Eric Ekland, Columbia University
# Keywords: NIH Roadmap, MLPCN, MLI, MLSMR, qHTS, NCGC, qHTS, malaria, luciferase, viability
# Four microliters of culture medium (RPMI 1640 with 0.5% w/v Albumax (GIBCO), 24 mM sodium bicarbonate and 10 ug/mL gentamycin) were dispensed by a Multi-drop Combi into white solid 1536-well plates (Grenier) and 23 nL compound was added by a pin tool. Four microliters of infected erythrocytes (2% hematocrit, 0.1% parasitemia final concentration) in culture medium were dispensed and the plates incubated for 48 hours at 37 C in 5% CO2. Two microliters of luciferase detection reagent was added and luminescence was detected by a ViewLux (PerkinElmer) reader.
# Potency means the concentration at half of the fitted maximal effect; tags describe the fitted curve by direction and shape.
row,SMILES,Potency
1,CCc1ccccc1NC(=O)N1CCC(NC(=O)C(Cc2ccc(OC)c(OC)c2)NC(C)=O)CC1 (configuration not stated),"inconclusive: 18.5 µM [inhibitor, single point]"
2,COc1ccc(CC2(CO)CCN(Cc3ccc(OC(F)(F)F)cc3)CC2)cc1,"inconclusive: 11.7 µM [inhibitor, single point]"
3,CCN(c1ccccc1)S(=O)(=O)c1ccc(Cl)c(NC(=O)CN2CCCCCC2)c1,active: 5.86 µM
4,Oc1c(C(Nc2ccccn2)c2ccccn2)ccc2cccnc12 (configuration not stated),active: 2.94 µM
5,CC(C)NC(=S)N(CCc1ccncc1)C(C)C,inactive
6,O=C(/C=C/c1cccs1)N1CCC2(CC1)Oc1ccc(Cl)cc1C(=O)C21CC(c2cccnc2)=NO1 (configuration not stated),active: 13.1 µM
7,CN1CCN(CCc2nc3cc(NC(=O)c4ccco4)ccc3n2C)CC1,inactive
8,O=c1c2ccccc2oc2nc(C3CCCCC3)n(Cc3ccco3)c(=O)c12,active: 13.1 µM
9,CCC1=NN(C(=O)c2ccc(Cl)cc2)C(O)(c2ccccc2)C1 (configuration not stated),"inconclusive: 4.65 µM [inhibitor, partial curve, poor fit]"
10,O=C(CSc1nc2nccnc2c(=O)n1Cc1cccs1)Nc1ccccc1,"inconclusive: 11.7 µM [inhibitor, single point]"
11,COc1ccc(Nc2nc(N)c([N+](=O)[O-])c(NCc3ccccc3)n2)cc1,"inconclusive: 5.22 µM [inhibitor, partial curve, poor fit]"
12,Cc1cc(C)n(-c2ccc(C(=O)OCC(=O)Nc3ccc(Cl)cc3[N+](=O)[O-])cc2)n1,inactive
13,COCCNC(=O)CSc1cc(=O)n(C)c2cc(Cl)ccc12,inactive
14,Cc1cc(C)cc(N(C(=O)c2ccc3c(c2)OCO3)C2C=CS(=O)(=O)C2)c1 (configuration not stated),"inconclusive: 18.5 µM [inhibitor, single point]"
15,O=C(CSc1nnc2c(Cl)cc(Cl)cn12)N1CCN(S(=O)(=O)c2ccccc2)CC1,"inconclusive: 20.8 µM [inhibitor, partial curve, poor fit]"
16,O=C(CSCC(=O)NC1CC1)Nc1ccc2ccccc2c1,active: 13.1 µM
17,CCCCNC(=O)CCNS(=O)(=O)c1ccc(Br)cc1,inactive
18,COc1ccccc1OCCOCCOc1ccc(C)cc1[N+](=O)[O-],inactive
19,O=C1c2ccccc2-c2nc3ccccc3cc21,inactive
20,Cc1cccc2nc(-c3cccc(NC(=O)c4ccc(Cl)cc4)c3)cn12,"inconclusive: 14.7 µM [inhibitor, single point]"
21,O=C(OCc1cccs1)c1ccccc1NS(=O)(=O)c1ccc2c(c1)OCCO2,"inconclusive: 16.5 µM [inhibitor, single point]"
22,CC1(C)CC(=O)C(Sc2ccc(Br)cc2)=C(O)C1,"inconclusive: 0.415 µM [inhibitor, partial curve, poor fit]"
23,NS(=O)(=O)c1ccc(NC(=S)NCc2ccc(Cl)cc2)cc1,inactive
24,Cc1ccc(C(=O)NNC(=O)c2ccc(-n3cncn3)c([N+](=O)[O-])c2)cc1,"inconclusive: 20.8 µM [inhibitor, single point]"

row,SMILES,Potency
1,Cc1cccn2c(/C=N/OCc3cccc(F)c3)c(-c3ccc(Cl)cc3)nc12,"inconclusive: 6.57 µM [inhibitor, partial curve, poor fit]"
2,CCCCCCCCCCOC(=O)C[N+](C)(C)C/C=C(/C)Cl,"inconclusive: 11.7 µM [inhibitor, partial curve, poor fit]"
3,CN1CCc2ccccc2Cc2[nH]c3ccccc3c2CC1,active: 8.28 µM
4,Cc1ccc2[nH]c(=O)c(C(c3nnnn3C3CCCC3)N(Cc3cccnc3)Cc3ccco3)cc2c1 (configuration not stated),"inconclusive: 0.037 µM [inhibitor, full curve, poor fit]"
5,COc1ccc(S(=O)(=O)N2CCCCC2)cc1NC(=O)CNc1ccccc1N1CCCC1=O,"inconclusive: 14.7 µM [inhibitor, partial curve]"
6,COc1ccccc1C1C(C#N)=C(N)Oc2cc(C)n(CCCn3ccnc3)c(=O)c21 (configuration not stated),inactive
7,Cc1ccc(/C=N\NC(=O)C2CN(S(=O)(=O)c3ccccc3)CCN2S(=O)(=O)c2ccccc2)cc1 (configuration not stated),"inconclusive: 18.5 µM [inhibitor, single point]"
8,CC1CCN(C(=O)c2cc3nc(C4CC4)cc(C(F)(F)F)n3n2)CC1,"inconclusive: 18.5 µM [inhibitor, single point]"
9,C=CCn1c(SCC(=O)Nc2sc(C)c(C)c2C(=O)OCC)nnc1-c1sc(N)nc1C,"inconclusive: 18.5 µM [inhibitor, single point]"
10,Cc1cc(Oc2nc3c(C)cccn3c(=O)c2/C=C(\C#N)S(=O)(=O)c2ccccc2)ccc1Cl,"inconclusive: 2.33 µM [inhibitor, full curve]"
11,COc1ccc(OCCOc2ccc(C)nc2[N+](=O)[O-])cc1,inactive
12,Cc1cc(C)c(OCC(=O)N(Cc2ccc(N(C)C)cc2)C2CCS(=O)(=O)C2)c(C)c1 (configuration not stated),"inconclusive: 9.28 µM [inhibitor, partial curve]"
13,Cc1cc(Cl)c(S(=O)(=O)N2CCN(c3ccc(F)cc3)CC2)cc1OCC(N)=O,"inconclusive: 9.28 µM [inhibitor, partial curve]"
14,O=C(COc1ccc2c(c1)OCO2)Nc1ccc2c(c1)oc1ccccc12,inactive
15,C(=N\Nc1nc(-c2ccccc2)cs1)/c1ccco1,inactive
16,COc1cc(CNCCO)cc(Cl)c1OCc1ccccc1Cl,"inconclusive: 18.5 µM [inhibitor, single point]"
17,C[N+]1(C)C2CCC1CC(OC(=O)c1c[nH]c3ccccc13)C2 (configuration not stated),"inconclusive: 19 µM [inhibitor, single point] and inconclusive: 13.1 µM [inhibitor, partial curve]"
18,O=C(/C=C/c1ccccc1)N1CCC(Cc2ccccc2)CC1,"inconclusive: 0.37 µM [inhibitor, partial curve, poor fit]"
19,Cc1cccc(NC(=O)Cn2cccc2)c1,inactive
20,COc1ccc(C(=O)NC(C)c2nc3ccccc3n2C)cc1OC (configuration not stated),inactive
21,CC1CC(=S)Nc2ccccc2N1Cc1ccccc1 (configuration not stated),active: 10.4 µM
22,CN(C)CCNc1oc(COc2ccc(-c3ccccc3)cc2)nc1C#N,"inconclusive: 18.5 µM [inhibitor, single point]"
23,CC(=O)c1ccc(N2CCN(C(=O)C3CCN(S(=O)(=O)c4ccc(F)cc4)CC3)CC2)cc1,"inconclusive: 0.738 µM [inhibitor, full curve]"
24,CN1CCN(C(=O)C2CC(=O)N(c3ccc(Cl)cc3)C2)CC1 (configuration not stated),inactive

row,SMILES,Potency
1,CCOC(=O)c1cnc(Nc2nc3ccccc3o2)nc1CSC(=S)N1CCCCC1,"inconclusive: 3.29 µM [inhibitor, full curve, poor fit]"
2,CCCCn1c(C)cc2c(c1=O)[C@H]1O[C@](CCCCN3C(=O)c4ccccc4C3=O)(Cc3ccccc31)O2,"inconclusive: 0.849 µM [inhibitor, partial curve]"
3,O=C(NCc1cccc(F)c1)c1ccc(N2C(=O)Cn3c(cc4sccc43)C2=O)cc1,inactive
4,CCN(Cc1ccncc1)Cc1cn[nH]c1-c1cc(OC)c(OC)c(OC)c1,"inconclusive: 16.5 µM [inhibitor, partial curve, poor fit]"
5,COc1ccc(CCNC(=O)c2cc(C(=O)c3cc(Cl)ccc3O)cn(CCc3ccc(OC)cc3)c2=O)cc1,active: 1.65 µM
6,O=C(/C=C/c1ccc2c(c1)OCO2)NCCSCc1cccc(Cl)c1,inactive
7,O=C(Nc1ccc(N2CCOCC2)c(Cl)c1)c1ccc(-n2cnnc2)cc1Cl,inactive
8,COCCN(CCOC)S(=O)(=O)c1ccc(NC(=O)c2cnccn2)cc1,active: 8.28 µM
9,COc1ccc(-c2cc(C(F)(F)F)nc(SCC(=O)NCc3cccs3)n2)cc1,active: 11.7 µM
10,COc1cc2c(cc1OC)C(C(=O)O)C(c1cc(Br)c(O)c(OC)c1)N(C)C2=O (configuration not stated),inactive
11,Cc1ccccc1OCCC(=O)OCC(=O)NC1CC1,inactive
12,CCOC(=O)c1c(CN(C)C)oc2cc(CN(C)C)c(O)c(CSc3ccccc3)c12,active: 0.37 µM
13,CCOc1ccc(N(CC(=O)NCCc2ccccc2)C(=O)c2csnn2)cc1,"inconclusive: 5.86 µM [inhibitor, partial curve, poor fit]"
14,COc1ccc2cc(C(=O)C3CCCN(Cc4cnc(C)s4)C3)ccc2c1 (configuration not stated),"inconclusive: 9.28 µM [inhibitor, partial curve, poor fit]"
15,Cc1ccc(C(=O)N/C(=C\c2cn(S(=O)(=O)N(C)C)c3ccccc23)C(=O)N2CCCC2)cc1,active: 10.4 µM
16,COc1ccc(S(=O)(=O)Oc2ccc3ccccc3c2)cc1,inactive
17,[Cl][Pt+2][Cl].[NH-]C1CCCCC1[NH-] (configuration not stated),"inconclusive: 18.5 µM [inhibitor, single point]"
18,Cc1ccc(CN2CC(C(=O)N3CCN(S(=O)(=O)c4c(F)cccc4F)CC3)CC2=O)cc1 (configuration not stated),"inconclusive: 7.38 µM [inhibitor, partial curve]"
19,Cc1c(NC(=O)Nc2cccc(C(F)(F)F)c2)c(=O)n(-c2ccccc2)n1C,inactive
20,CCCCNC(=O)CNC(=S)N(Cc1ccc(C)cc1)Cc1ccco1,"inconclusive: 11.7 µM [inhibitor, partial curve]"
21,Brc1csc(C=Nc2ccc3c(c2)OCCOCCOCCOCCO3)c1,inactive
22,O=C(Nc1cccc(O)c1)c1cc(-c2ccco2)on1,inactive
23,O.O.O.O.O.O.O.O=S(=O)([O-])[O-].[Co+2],active: 6.75 µM
24,CCOc1ccc(S(=O)(=O)N2CCCC(C(=O)Nc3cc(C)cc(C)c3)C2)cc1 (configuration not stated),"inconclusive: 9.28 µM [inhibitor, partial curve, poor fit]"
